The other results are listed elsewhere or left out. The energies were worked out here from pooled read counts, against the library average; single values are noisy.

This assay has as its target T1, Pho4 (S. cerevisiae) (UniProt P07270).
T1 sequence: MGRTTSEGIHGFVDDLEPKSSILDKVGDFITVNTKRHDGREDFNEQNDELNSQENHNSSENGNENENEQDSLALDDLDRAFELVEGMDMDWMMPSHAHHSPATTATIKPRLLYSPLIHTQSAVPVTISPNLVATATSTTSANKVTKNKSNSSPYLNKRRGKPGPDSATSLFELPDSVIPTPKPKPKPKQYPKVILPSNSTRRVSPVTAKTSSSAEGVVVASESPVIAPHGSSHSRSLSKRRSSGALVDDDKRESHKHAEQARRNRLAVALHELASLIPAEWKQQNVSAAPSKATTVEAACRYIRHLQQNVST
The assay can be described thus: relative binding free energy (BET-seq); higher = weaker binding. To be noted: reference: library average.
On to TAGTTCACGTGGTAGG, for which the “relative binding free energy” value was 0.25 kcal/mol.

As to GGATCCACGTGGAGGG, the “relative binding free energy” value is -0.12 kcal/mol.

Consider ATTGTCACGTGATTAT, for which the “relative binding free energy” value was 0.1 kcal/mol.

As for GCTTTCACGTGGGCGG, the “relative binding free energy” value is 0.09 kcal/mol.

For the sequence TTCGGCACGTGGCGAG, the “relative binding free energy” value was -0.22 kcal/mol.

On to CTGTTCACGTGTGAAT, for which the “relative binding free energy” value is 0.29 kcal/mol.

In the case of ATAATCACGTGTTGTC, the “relative binding free energy” value is -0.01 kcal/mol.

Regarding CAGTTCACGTGTTTGG, the “relative binding free energy” value worked out at 0.17 kcal/mol.

AGATGCACGTGCTGAG: the “relative binding free energy” value was found to be 0.14 kcal/mol.

With AGATGCACGTGAGGTT, the “relative binding free energy” value stood at 0.24 kcal/mol.

As to AATGTCACGTGCTTAT, the “relative binding free energy” value is -0.02 kcal/mol.

As for TGATTCACGTGGGTCG, the “relative binding free energy” value came to 0.24 kcal/mol.

For TGTAGCACGTGTTATT, the “relative binding free energy” value was -0.03 kcal/mol.

TTGGCCACGTGTGCGG: the “relative binding free energy” value is -0.08 kcal/mol.

AGAAGCACGTGCGGTG: the “relative binding free energy” value is -0.16 kcal/mol.

Regarding GAGAGCACGTGGTGGG, the “relative binding free energy” value is -0.04 kcal/mol.

On to TGGTTCACGTGCATTT, for which the “relative binding free energy” value was 0.26 kcal/mol.

Consider AGGGTCACGTGTGGTT, for which the “relative binding free energy” value was 0.18 kcal/mol.

With GTTAGCACGTGGTAAC, the “relative binding free energy” value is -0.05 kcal/mol.

ATGAACACGTGTAGGC: the “relative binding free energy” value stood at 0.17 kcal/mol.

Take TGTGACACGTGCTTTG: the “relative binding free energy” value is -0.01 kcal/mol.

With AATAGCACGTGGGGTC, the “relative binding free energy” value is -0.24 kcal/mol.

Take AGGGACACGTGTGTCT: the “relative binding free energy” value is -0.12 kcal/mol.

For GTGGGCACGTGGTCGC, the “relative binding free energy” value is -0.03 kcal/mol.

ATTCTCACGTGGGCTT: the “relative binding free energy” value came out at 0.21 kcal/mol.

CATGTCACGTGGGACG: the “relative binding free energy” value was 0.07 kcal/mol.

TTGACCACGTGTGGAG: the “relative binding free energy” value is 0.02 kcal/mol.

TATTTCACGTGGCTTA: the “relative binding free energy” value was found to be 0.22 kcal/mol.

On to GTGACCACGTGTTGTT, for which the “relative binding free energy” value is -0.1 kcal/mol.

For the sequence TTTTACACGTGCTTGA, the “relative binding free energy” value was found to be 0.1 kcal/mol.

Regarding TTCGTCACGTGATAGA, the “relative binding free energy” value worked out at 0.31 kcal/mol.

CGGTTCACGTGCAGTT: the “relative binding free energy” value amounted to 0.33 kcal/mol.

Consider AATAGCACGTGTTTGT, for which the “relative binding free energy” value was -0.11 kcal/mol.

As to ATGCGCACGTGGAAGT, the “relative binding free energy” value is -0.09 kcal/mol.

TGGTACACGTGGAGTT: the “relative binding free energy” value turned out to be 0.15 kcal/mol.

For the sequence GGGGTCACGTGCCAGT, the “relative binding free energy” value is 0.08 kcal/mol.

Take TTAGCCACGTGATTGG: the “relative binding free energy” value was -0.04 kcal/mol.

As for CAGGGCACGTGGTTAA, the “relative binding free energy” value is -0.1 kcal/mol.

TTACGCACGTGATTAG: the “relative binding free energy” value is -0.01 kcal/mol.

Take AGCGGCACGTGGAGGT: the “relative binding free energy” value is -0.1 kcal/mol.

TTAGTCACGTGGGACG: the “relative binding free energy” value was -0.02 kcal/mol.

As for ATAAACACGTGTGTAT, the “relative binding free energy” value was -0.15 kcal/mol.

As for TATGTCACGTGGATTG, the “relative binding free energy” value is 0.09 kcal/mol.

With TGTCGCACGTGTGTGT, the “relative binding free energy” value is -0.01 kcal/mol.

For the sequence TGTGACACGTGATGTA, the “relative binding free energy” value amounted to 0.09 kcal/mol.

Consider GGTCACACGTGTGTGA, for which the “relative binding free energy” value was determined as 0.07 kcal/mol.

For TGTTTCACGTGCGATT, the “relative binding free energy” value is 0.31 kcal/mol.

With GGGTTCACGTGCTTTG, the “relative binding free energy” value was 0.37 kcal/mol.

CGACTCACGTGTGGGT: the “relative binding free energy” value is 0.15 kcal/mol.

Turning to GGTCACACGTGTTTTT, the “relative binding free energy” value was 0.01 kcal/mol.

TATTTCACGTGTGCTC: the “relative binding free energy” value is 0.28 kcal/mol.

Regarding CGGGGCACGTGGTTAT, the “relative binding free energy” value is -0.26 kcal/mol.

As to GTATGCACGTGAGTGG, the “relative binding free energy” value was 0.19 kcal/mol.

Take TATTACACGTGTTTGA: the “relative binding free energy” value amounted to 0.02 kcal/mol.

For AATGGCACGTGTGACG, the “relative binding free energy” value was -0.1 kcal/mol.

With TAGGGCACGTGTGCAT, the “relative binding free energy” value is -0.15 kcal/mol.

For AGTGGCACGTGTGCCG, the “relative binding free energy” value was -0.11 kcal/mol.

Regarding GTCTTCACGTGAATGT, the “relative binding free energy” value amounted to 0.42 kcal/mol.

For AGTTACACGTGCGTGT, the “relative binding free energy” value is -0.09 kcal/mol.

With TTCGTCACGTGGAGTT, the “relative binding free energy” value worked out at 0.07 kcal/mol.

Turning to TGCCGCACGTGTGGGG, the “relative binding free energy” value is -0.04 kcal/mol.

In the case of TGTGCCACGTGGGCTT, the “relative binding free energy” value is -0.24 kcal/mol.

Consider TTAATCACGTGCTTAT, for which the “relative binding free energy” value was 0.24 kcal/mol.

As for ATTTTCACGTGCATGG, the “relative binding free energy” value stood at 0.26 kcal/mol.

Turning to CTTGTCACGTGGTTGC, the “relative binding free energy” value was determined as 0.05 kcal/mol.

Regarding CATTGCACGTGGTGAG, the “relative binding free energy” value is -0.15 kcal/mol.

With TTTATCACGTGGAGCT, the “relative binding free energy” value is 0.23 kcal/mol.

With AGGGTCACGTGGTATA, the “relative binding free energy” value was -0.02 kcal/mol.

As for TTAGGCACGTGTCTCG, the “relative binding free energy” value was -0.02 kcal/mol.

CGGGTCACGTGCGTAT: the “relative binding free energy” value was 0.08 kcal/mol.

As to AGCTGCACGTGTGTAG, the “relative binding free energy” value was -0.08 kcal/mol.

On to TAGATCACGTGGTTAT, for which the “relative binding free energy” value turned out to be 0.1 kcal/mol.

As to CTTCTCACGTGTAGGT, the “relative binding free energy” value was 0.2 kcal/mol.

Take GCGGGCACGTGGTAGC: the “relative binding free energy” value is -0.18 kcal/mol.

On to GGTCACACGTGGTAAT, for which the “relative binding free energy” value worked out at 0.11 kcal/mol.

In the case of TGAGACACGTGTAGAG, the “relative binding free energy” value came out at 0.07 kcal/mol.

With CGAGACACGTGTGGAG, the “relative binding free energy” value was 0.13 kcal/mol.

Regarding GTTATCACGTGTGCGG, the “relative binding free energy” value stood at 0.29 kcal/mol.

Consider TTATGCACGTGTGTAT, for which the “relative binding free energy” value is -0.04 kcal/mol.

As for TTGTCCACGTGGTGCT, the “relative binding free energy” value was -0.05 kcal/mol.

As for GTTGGCACGTGGTAGA, the “relative binding free energy” value was determined as 0 kcal/mol.

For TGGTGCACGTGGTGGT, the “relative binding free energy” value is -0.09 kcal/mol.

For TGCAGCACGTGAATTT, the “relative binding free energy” value came out at 0.35 kcal/mol.

With AGTCGCACGTGGTCTG, the “relative binding free energy” value was -0.24 kcal/mol.

With AAGGGCACGTGGTGTA, the “relative binding free energy” value is -0.19 kcal/mol.

As for AACGTCACGTGGTCGG, the “relative binding free energy” value is 0.05 kcal/mol.

As to TCTATCACGTGCGGGG, the “relative binding free energy” value stood at 0.17 kcal/mol.

Turning to TAAGGCACGTGCTATG, the “relative binding free energy” value is -0.11 kcal/mol.

Turning to GTAGGCACGTGCGGCA, the “relative binding free energy” value is -0.04 kcal/mol.

On to CATTGCACGTGGGAGG, for which the “relative binding free energy” value is -0.12 kcal/mol.

GGTAGCACGTGGGGTC: the “relative binding free energy” value is -0.09 kcal/mol.

Take GCTGACACGTGGAGTG: the “relative binding free energy” value stood at 0.02 kcal/mol.

On to GCGTTCACGTGAGATG, for which the “relative binding free energy” value stood at 0.26 kcal/mol.

Consider TGGCGCACGTGCGGTC, for which the “relative binding free energy” value is -0.03 kcal/mol.

Regarding TTTTGCACGTGATAGG, the “relative binding free energy” value worked out at 0.12 kcal/mol.

For ATAGGCACGTGAGATT, the “relative binding free energy” value turned out to be 0.13 kcal/mol.

Turning to TTGGACACGTGGAATA, the “relative binding free energy” value was found to be 0.11 kcal/mol.

For the sequence TTATCCACGTGTTGAT, the “relative binding free energy” value was determined as 0 kcal/mol.

For TGGTCCACGTGGTTTG, the “relative binding free energy” value is 0.07 kcal/mol.

For the sequence TTTATCACGTGTTACA, the “relative binding free energy” value came to 0.09 kcal/mol.

As to TTTTTCACGTGTTTAT, the “relative binding free energy” value was found to be 0.36 kcal/mol.

TTTTTCACGTGATTGG: the “relative binding free energy” value amounted to 0.27 kcal/mol.

With ATAAACACGTGTAGTT, the “relative binding free energy” value was -0.12 kcal/mol.

With CTTTGCACGTGGAGTT, the “relative binding free energy” value turned out to be 0.03 kcal/mol.

TAATGCACGTGGGTGT: the “relative binding free energy” value is -0.2 kcal/mol.

On to GTAATCACGTGTTATG, for which the “relative binding free energy” value is 0.21 kcal/mol.

As to TCTGACACGTGTATGG, the “relative binding free energy” value worked out at 0 kcal/mol.

TTGATCACGTGTGATA: the “relative binding free energy” value was found to be 0.14 kcal/mol.

Regarding ATGAGCACGTGAGTGA, the “relative binding free energy” value was determined as 0.22 kcal/mol.

On to ATGATCACGTGGCAGT, for which the “relative binding free energy” value is 0.14 kcal/mol.

For the sequence TTGACCACGTGGTTTA, the “relative binding free energy” value was -0.06 kcal/mol.

Consider GTAGGCACGTGTATCG, for which the “relative binding free energy” value was 0.04 kcal/mol.

As to GCGAGCACGTGAGTGA, the “relative binding free energy” value came to 0.4 kcal/mol.

For the sequence CGGTACACGTGTTGTA, the “relative binding free energy” value worked out at 0.02 kcal/mol.

Regarding TAAAACACGTGTATTT, the “relative binding free energy” value was found to be 0.09 kcal/mol.

The values above are taken from the BET-seq Pho4 binding data (Le et al. 2018).
